# Measurements published in PubChem BioAssay (NCATS).
# “And” between values parts separate entries of the source, which are not always exact repeats. Identical values can stand only once. Inconclusive means that the source gave no clear call. Such entries were picked first, then a sample of the others. For some of these results: Where the call is inconclusive, the potency comes from a doubtful curve fit. The source made the active and inactive calls. Unless noted, the call rests on the fitted dose curve; in most records, active means well fitted curve in the direction sought with a large enough effect; inconclusive means small, poorly fitted or top-dose-only effect, or another doubt; inactive means no such curve, though single readings can be large; an effect the other way counts as inactive or inconclusive.
# Key:
# [1] = target: Protein phosphatase 1D (Homo sapiens) (UniProt O15297); test: RapidFire Mass Spectrometry qHTS Assay for Modulators of WT P53-Induced Phosphatase 1 (WIP1) (AID 1347424); settings: WIP1 dephosphorylation of phosphopeptide, RapidFire MS; series mostly up to 63 µM;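 further: amount of dephosphorylated VEPPL-S-QETFS peptide product formed by WIP1; potency means the concentration at half of the fitted maximal effect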
# In short: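 10 nM WIP1 preincubated with compounds 1 hr at room temperature in pH 7.5 Tris buffer with 30 mM MgCl2, 1 mM TCEP; 2 uM VEPPL-pS-QETFS phosphopeptide for 5 min, formic acid quench; dephosphorylated product quantified by RapidFire MS against labelled standard.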
# [2] = target: Protein phosphatase 1D (Homo sapiens) (UniProt O15297); test: Rhodamine-PBP qHTS Assay for Modulators of WT P53-Induced Phosphatase 1 (WIP1) (AID 1347425); settings: recombinant WIP1, Rhodamine-PBP phosphate fluorescence, real-time; further: potency means the concentration at half of the fitted maximal effect
# In short: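 The read-out is the change in Rhodamine-PBP fluorescence (f1 - f0, ex 525/em 598 nm) as Pi is released, read each minute for 11 min. Final reaction: 5 nM WIP1, 10 uM phosphopeptide VEPPL-pS-QETFS, 10 uM Rh-PBP, 50 mM Tris-HCl pH 7.5, 30 mM MgCl2. Compound was preincubated with enzyme for 1 hour at room temperature.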
# [3] = target: Calcium and integrin-binding protein 1 (Homo sapiens) (UniProt Q99828); test: Confirmatory qHTS for Identification of Calcium Integrin Binding Protein 1 (CIB1) Competitor (AID 1508617); settings: CIB1 binding competition assay, biochemical qHTS; series mostly up to 114 µM; further: potency means the concentration at half of the fitted maximal effect; nearly all actives have a fitted effect of over 65% in size
# In short: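 Compounds at up to 114 uM final met 1 uM GST-tagged CIB1 for 15 min at room temperature (HEPES pH 7.4, 5 mM CaCl2). FITC-labelled alphaIIb peptide, 100 nM, added; polarization read after 15 min more.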
# [4] = target: Calcium and integrin-binding protein 1 (Homo sapiens) (UniProt Q99828); test: Primary qHTS for Identification of Calcium Integrin Binding Protein 1 (CIB1) Competitor (AID 1508620); settings: CIB1-GST / FITC-alphaIIb peptide fluorescence polarization; series mostly up to 57.7 µM; further: potency means the concentration at half of the fitted maximal effect
# In short: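 Fluorescence polarization competition: GST-tagged CIB1 (1 uM final) preincubated with compound 15 min at room temperature, then FITC-labelled alphaIIb peptide (100 nM final) added. After 15 min at room temperature, polarization read at Ex 480/Em 540.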
# [5] = target: Calcium and integrin-binding protein 1 (Homo sapiens) (UniProt Q99828); test: Validation qHTS for Identification of Calcium Integrin Binding protein 1 (CIB1) Competitor (AID 1508618); settings: CIB1-GST / FITC-alphaIIb peptide fluorescence polarization; series mostly up to 114 µM; further: potency means the concentration at half of the fitted maximal effect
# In short: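 CIB1-GST (1 uM final) incubated 15 min at room temperature with compounds (up to 114 uM), then FITC-labelled alphaIIb peptide (100 nM) added. FP read (Ex 480/Em 540) after 15 min, pH 7.4 buffer containing 5 mM CaCl2.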
# [6] = Confirmatory qHTS for small molecule stabilizers of the endoplasmic reticulum resident proteome: Secreted ER Calcium Modulated Protein (SERCaMP) assay (AID 1508628); settings: SERCaMP secreted luciferase ER calcium/proteostasis reporter; series mostly up to 76.3 µM; further: nearly all actives have a fitted effect of over 40% in size; further: potency means the concentration at half of the fitted maximal effect
# In short: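 We seeded SH-SY5Y-GLuc-SERCaMP cells, added compounds (three concentrations in the primary run, eleven up to 76.6 uM in confirmation), incubated 16 h, depleted ER calcium with thapsigargin, and read luciferase 4 h later.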
# [7] = Cell Viability qHTS for small molecule stabilizers of the endoplasmic reticulum resident proteome (AID 1508629); settings: cell viability counter-screen, 100 nM thapsigargin for final 4 h;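 further: compound exposure about 46 h in total before the viability read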; further: potency means the concentration at half of the fitted maximal effect;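 on max response: human SH-SY5Y neuroblastoma cells carrying the GLuc-SERCaMP reporter; on the % scale 0 is the no-effect control and ±100 the full control effect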
# [8] = Counterscreen qHTS for small molecule stabilizers of the endoplasmic reticulum resident proteome: GLuc-NoTag assay (AID 1508627); settings: Gaussia luciferase NoTag secretion counterscreen, luminescence, thapsigargin 100 nM for final 4 h; series mostly up to 76.4 µM; further: potency means the concentration at half of the fitted maximal effect
# In short: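 SH-SY5Y cells stably expressing constitutively secreted GLuc without SERCaMP tag, exposed to compound for 19 hr, then to 100 nM thapsigargin for 4 hr at 37C. Medium luciferase was read by coelenterazine luminescence without lysis.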
# [9] = target: Single-stranded DNA cytosine deaminase (Homo sapiens) (UniProt Q9GZX7); test: Validation qHTS assay for inhibitors of Activation Induced Cytidine Deaminase (AID): AID signal (AID 1347429); settings: Recombinant AID, FRET ssDNA deamination with UDG, fluorescence; series mostly up to 115 µM; further: potency means the concentration at half of the fitted maximal effect
# In short: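 In this coupled qHTS, AID deaminates a FRET-labelled ssDNA substrate in the presence of UDG over 4 hr at room temperature. Compounds span up to 114 uM final.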
# Papain (Carica papaya) = Papain (Carica papaya) (UniProt P00784); test: Primary qHTS assay for inhibitors of the protease papain (AID 1645873); settings: papain Z-FR-AMC cleavage, AMC fluorescence; series mostly up to 49.8 µM
# [10] = Primary qHTS for inhibitors of La Crosse Virus (LACV) - induced cell death in SH-SY5Y cells (AID 1508616); settings: SH-SY5Y LACV cytopathicity rescue, ATP luminescence, 6 d; series mostly up to 4.29 µM;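 further: top concentration of the series differs between compounds; 0% = infected DMSO wells and 100% = uninfected DMSO wells; higher means more rescue of cells from virus-induced death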
# In short: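 Readout was luminescence from ATPLite 1step added after a 6-day LACV infection (0.01 MOI) of SH-SY5Y cells that had received pin-transferred compound 24 hr after seeding.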
# [11] = target: Cytochrome P450 3A4 (Homo sapiens) (UniProt P08684); test: Cytochrome P450 family 3 subfamily A member 4 (CYP3A4) small molecule antagonists: luciferase qHTS assay (AID 1645841; active means well fitted curve in the direction sought with a large enough effect in the repeat runs; inconclusive means weak or mixed curves; inactive means no such curve, though single readings can be large; an effect the other way counts as inactive or inconclusive; further: nearly all actives have a fitted effect of over 45% in size); settings: P450-Glo CYP3A4 enzyme assay, luciferin luminescence; series mostly up to 57.4 µM
# In short: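 P450-Glo CYP3A4 enzyme with proluciferin substrate preincubated 10 min with compound at room temperature, then NADPH regeneration 1 h. Luciferin detection reagent added for 20 min; luminescence recorded. Ketoconazole positive control.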
# [12] = target: N-terminal Xaa-Pro-Lys N-methyltransferase 1 (Homo sapiens) (UniProt Q9BV86); test: Confirmatory qHTS for Inhibitors of N-terminal methyltransferase 1 (NTMT1): MTaseGlo Assay (AID 1645874); settings: NTMT1 enzyme, MTase-Glo SAH luminescence; series mostly up to 100 µM;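 further: luminescence from SAH made as NTMT1 methylates SPKRIA peptide using SAM; 0% = DMSO control and -100% = no-enzyme control; nearly all actives have a fitted effect of over 65% in size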
# In short: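 qHTS format: NTMT1 125 nM, SAM 100 uM, peptide SPKRIA 1 uM final; 15 min compound preincubation, 30 min reaction at room temperature. MTase-Glo luminescence.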
# [13] = qHTS to identify inhibitors of the type 1 interferon - major histocompatibility complex class I in skeletal muscle: primary screen against the NCATS Mechanism Interrogation Plate v5.0 (MIPE) Libary (AID 1347411); settings: iHSKM cells + IFN-b, HiBiT-tagged MHC-I luminescence, 24 h; activity change, negative = inhibition: at 45.8 µM (top of the series); further: nearly all actives have a fitted effect of over 65% in size; further: potency means the concentration at half of the fitted maximal effect;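 on activity change, negative = inhibition: plate controls were vehicle for no effect and reference inhibitor for full effect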
# In short: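 Cells were genome-edited human myoblasts carrying a HiBit tag on endogenous HLA-B. They were treated with IFN-beta (4.0 ng/ml) and titrated compounds (top 46 uM) for 24 hrs before lytic HiBiT detection.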
# [14] = target: Cytochrome P450 2C9 (Homo sapiens) (UniProt P11712); test: Cytochrome P450 family 2 subfamily C member 9 (CYP2C9) small molecule antagonists: luciferase biochemical (cell-free) qHTS assay (AID 1645842; active means well fitted curve in the direction sought with a large enough effect in the repeat runs; inconclusive means weak or mixed curves; inactive means no such curve, though single readings can be large; an effect the other way counts as inactive or inconclusive; further: potency means the concentration at half of the fitted maximal effect; nearly all actives have a fitted effect of over 55% in size); settings: P450-Glo CYP2C9 enzyme assay, luciferin luminescence; series mostly up to 57.4 µM
# In short: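 Luminescence, after 20 min with luciferin detection reagent, reflected CYP2C9 turnover during a 1 h NADPH-driven reaction at 37C. Enzyme-substrate mix contained 0.4% bovine serum albumin and was preincubated with compound 10 min at room temperature.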
# [15] = target: Cytochrome P450 2D6 (Homo sapiens) (UniProt P10635); test: Cytochrome P450 family 2 subfamily D member 6 (CYP2D6) small molecule antagonists: luciferase biochemical (cell-free) qHTS assay (AID 1645840; active means well fitted curve in the direction sought with a large enough effect in the repeat runs; inconclusive means weak or mixed curves; inactive means no such curve, though single readings can be large; an effect the other way counts as inactive or inconclusive; further: nearly all actives have a fitted effect of over 55% in size; further: potency means the concentration at half of the fitted maximal effect; on activity change, negative = inhibition: on the % scale 0 is the no-effect control and ±100 the full control effect); settings: P450-Glo CYP2D6 enzyme, luciferin luminescence, 1 h; series mostly up to 57.4 µM
# In short: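 P450-Glo luminescent screen: recombinant CYP2D6 enzyme–proluciferin substrate mix preincubated with compound 10 min at room temperature, then NADPH regeneration added for 1 h at room temperature. Detection reagent added for 20 min; luciferin light read as relative luminescence units.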
# [16] = Primary qHTS for small molecule stabilizers of the endoplasmic reticulum resident proteome: Secreted ER Calcium Modulated Protein (SERCaMP) assay (AID 1508630); settings: SH-SY5Y GLuc-SERCaMP (Gaussia luciferase released on ER calcium loss) secretion, thapsigargin, luminescence; activity change, negative = inhibition: at 38.4 µM (top of the series); further: potency means the concentration at half of the fitted maximal effect
# In short: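 GLuc-SERCaMP-expressing SH-SY5Y cells, pretreated 16 h with compound, are challenged with thapsigargin to empty ER calcium stores; after 4 h, coelenterazine is added directly to the medium and luminescence is imaged.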
# Tags describe the fitted curve by direction and shape.
# UniProt P11712, sequence (P11712 whole entry, looked up): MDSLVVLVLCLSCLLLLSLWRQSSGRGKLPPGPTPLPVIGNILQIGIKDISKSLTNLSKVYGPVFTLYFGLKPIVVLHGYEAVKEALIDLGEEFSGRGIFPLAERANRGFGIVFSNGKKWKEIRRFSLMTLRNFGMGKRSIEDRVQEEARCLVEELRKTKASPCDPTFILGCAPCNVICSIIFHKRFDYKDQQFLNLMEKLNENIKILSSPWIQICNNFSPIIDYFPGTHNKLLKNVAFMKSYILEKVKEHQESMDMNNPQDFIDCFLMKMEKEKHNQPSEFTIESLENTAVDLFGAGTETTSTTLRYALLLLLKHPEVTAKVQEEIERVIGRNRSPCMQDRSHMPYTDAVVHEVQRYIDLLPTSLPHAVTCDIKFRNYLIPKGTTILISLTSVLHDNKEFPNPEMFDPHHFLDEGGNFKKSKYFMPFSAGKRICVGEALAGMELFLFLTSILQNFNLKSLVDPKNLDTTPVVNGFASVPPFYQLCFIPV
# UniProt P10635, sequence (P10635 whole entry, looked up): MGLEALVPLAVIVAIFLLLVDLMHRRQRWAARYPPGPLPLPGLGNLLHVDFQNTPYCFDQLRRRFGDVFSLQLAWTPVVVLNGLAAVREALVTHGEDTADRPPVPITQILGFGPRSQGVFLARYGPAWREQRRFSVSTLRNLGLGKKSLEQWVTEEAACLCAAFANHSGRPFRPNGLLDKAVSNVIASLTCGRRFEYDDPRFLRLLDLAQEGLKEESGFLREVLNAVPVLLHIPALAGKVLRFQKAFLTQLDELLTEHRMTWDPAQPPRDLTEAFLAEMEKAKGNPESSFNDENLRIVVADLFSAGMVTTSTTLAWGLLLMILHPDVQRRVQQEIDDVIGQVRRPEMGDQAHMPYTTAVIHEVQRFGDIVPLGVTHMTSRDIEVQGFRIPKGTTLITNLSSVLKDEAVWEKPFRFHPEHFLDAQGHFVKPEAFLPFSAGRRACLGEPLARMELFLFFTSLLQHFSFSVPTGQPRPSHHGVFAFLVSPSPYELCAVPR
# UniProt O15297, sequence (O15297 whole entry, looked up): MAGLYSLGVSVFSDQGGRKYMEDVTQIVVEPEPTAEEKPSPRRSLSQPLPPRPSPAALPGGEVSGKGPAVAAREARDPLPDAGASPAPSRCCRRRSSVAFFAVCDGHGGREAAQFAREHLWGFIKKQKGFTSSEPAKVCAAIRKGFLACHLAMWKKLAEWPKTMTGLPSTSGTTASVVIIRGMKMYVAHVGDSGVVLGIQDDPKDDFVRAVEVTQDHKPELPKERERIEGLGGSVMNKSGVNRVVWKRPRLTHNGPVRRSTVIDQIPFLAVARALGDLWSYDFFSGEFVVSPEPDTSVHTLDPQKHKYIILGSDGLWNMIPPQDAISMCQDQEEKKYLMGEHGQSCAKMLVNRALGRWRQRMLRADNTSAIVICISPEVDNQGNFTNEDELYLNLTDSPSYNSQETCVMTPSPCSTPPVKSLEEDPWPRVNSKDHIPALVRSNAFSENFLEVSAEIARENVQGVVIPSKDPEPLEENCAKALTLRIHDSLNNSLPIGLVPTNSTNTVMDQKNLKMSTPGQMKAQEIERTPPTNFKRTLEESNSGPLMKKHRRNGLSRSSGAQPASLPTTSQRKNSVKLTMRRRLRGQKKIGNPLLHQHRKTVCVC
# UniProt Q99828, sequence (Q99828 whole entry, looked up): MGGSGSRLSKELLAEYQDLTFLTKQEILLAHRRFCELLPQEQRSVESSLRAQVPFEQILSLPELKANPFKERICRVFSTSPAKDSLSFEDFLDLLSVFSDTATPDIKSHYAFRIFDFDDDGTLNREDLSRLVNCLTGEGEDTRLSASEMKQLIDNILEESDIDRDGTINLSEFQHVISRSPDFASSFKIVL
# UniProt P00784, sequence (P00784 whole entry, looked up): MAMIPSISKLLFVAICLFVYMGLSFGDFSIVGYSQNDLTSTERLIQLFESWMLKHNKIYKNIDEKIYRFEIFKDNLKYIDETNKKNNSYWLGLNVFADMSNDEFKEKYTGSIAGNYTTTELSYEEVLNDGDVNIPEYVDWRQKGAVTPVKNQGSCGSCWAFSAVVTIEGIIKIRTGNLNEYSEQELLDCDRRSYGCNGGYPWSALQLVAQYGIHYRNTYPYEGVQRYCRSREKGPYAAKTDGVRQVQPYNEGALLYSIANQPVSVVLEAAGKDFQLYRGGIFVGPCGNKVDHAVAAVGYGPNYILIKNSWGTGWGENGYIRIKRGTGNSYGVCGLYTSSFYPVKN
# UniProt P08684, sequence (P08684 whole entry, looked up): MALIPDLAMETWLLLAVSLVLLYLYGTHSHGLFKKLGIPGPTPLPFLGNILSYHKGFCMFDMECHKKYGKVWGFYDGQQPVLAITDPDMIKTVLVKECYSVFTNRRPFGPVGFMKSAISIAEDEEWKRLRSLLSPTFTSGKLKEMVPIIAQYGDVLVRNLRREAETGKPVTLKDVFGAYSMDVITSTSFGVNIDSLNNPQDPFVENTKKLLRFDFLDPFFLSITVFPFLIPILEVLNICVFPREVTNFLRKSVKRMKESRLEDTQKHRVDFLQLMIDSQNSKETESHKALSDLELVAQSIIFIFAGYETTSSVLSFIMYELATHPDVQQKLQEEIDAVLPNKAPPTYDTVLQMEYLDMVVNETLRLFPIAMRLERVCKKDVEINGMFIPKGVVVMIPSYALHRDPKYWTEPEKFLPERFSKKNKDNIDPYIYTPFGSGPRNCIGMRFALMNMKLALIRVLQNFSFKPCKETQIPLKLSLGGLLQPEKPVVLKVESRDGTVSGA
# UniProt Q9BV86, sequence (Q9BV86 whole entry, looked up): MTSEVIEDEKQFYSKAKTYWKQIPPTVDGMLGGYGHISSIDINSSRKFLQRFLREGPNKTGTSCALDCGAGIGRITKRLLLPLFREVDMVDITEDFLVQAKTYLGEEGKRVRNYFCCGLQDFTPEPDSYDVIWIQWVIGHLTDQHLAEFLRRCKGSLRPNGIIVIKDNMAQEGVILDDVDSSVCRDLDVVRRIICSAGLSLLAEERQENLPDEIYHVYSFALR
# UniProt Q9GZX7, sequence (Q9GZX7 whole entry, looked up): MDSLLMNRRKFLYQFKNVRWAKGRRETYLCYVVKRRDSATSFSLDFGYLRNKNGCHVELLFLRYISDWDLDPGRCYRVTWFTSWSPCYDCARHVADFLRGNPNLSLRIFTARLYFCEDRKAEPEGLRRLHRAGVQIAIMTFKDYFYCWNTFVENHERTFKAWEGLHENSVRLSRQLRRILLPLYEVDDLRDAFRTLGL
smiles,measurement,setting,value
COc1ccc(-c2ccc3cc(C(=O)O)ccc3c2)cc1C12CC3CC(CC(C3)C1)C2,Potency,[1],"inconclusive: 1.26 µM [inhibitor, partial curve, poor fit]"
CC(c1cc2ccccc2s1)N(O)C(N)=O (stereo unspecified),Potency,[1],"inconclusive: 35.5 µM [inhibitor, single point]"
C1COC(NC(C2CC2)C2CC2)=N1,Potency,[2],"inconclusive: 3.98 µM [inhibitor, full curve, poor fit]"
COc1cc(Nc2c(C#N)cnc3cc(OCCCN4CCN(C)CC4)c(OC)cc23)c(Cl)cc1Cl,Potency,[3],active: 44.7 µM
same,Potency,[4],"inconclusive: 50.1 µM [inhibitor, partial curve]"
CCN(CC)CCOc1ccc(Nc2ncc3cc(-c4c(Cl)cccc4Cl)c(=O)n(C)c3n2)cc1,Potency,[5],"inconclusive: 50.1 µM [inhibitor, partial curve]"
Cc1ccc(S(=O)(=O)N[C@@H](Cc2ccccc2)C(=O)CCl)cc1,Potency,[5],"inconclusive: 3.98 µM [inhibitor, full curve]"
O=C(c1ccc(F)cc1)C1CCN(CCn2c(=O)[nH]c3ccccc3c2=O)CC1,Potency,[6],"inconclusive: 39.8 µM [inhibitor, partial curve, poor fit]"
same,Potency,[7],"inconclusive: 15.8 µM [cytotoxic, partial curve, poor fit]"
Cc1ccc(-c2cc(C(F)(F)F)nn2-c2ccc(S(N)(=O)=O)cc2)cc1,Potency,[1],"inconclusive: 22.4 µM [inhibitor, partial curve]"
same,Potency,[2],"inconclusive: 39.8 µM [inhibitor, single point]"
C[C@@H]1CC(=O)NN=C1c1ccc(NN=C(C#N)C#N)cc1,Potency,[1],"inconclusive: 25.1 µM [inhibitor, partial curve]"
same,Potency,[2],"inconclusive: 28.2 µM [inhibitor, partial curve, poor fit] and inconclusive: 22.4 µM [inhibitor, single point]"
same,Potency,[8],active: 14.1 µM and active: 28.2 µM
same,Potency,[6],active: 15.8 µM
same,Potency,[7],"inconclusive: 15.8 µM [cytotoxic, partial curve]"
same,max response,[7],inactive: -18.7%
CC(C)(Sc1ccc(CCN(CCCCC2CCCCC2)C(=O)NC2CCCCC2)cc1)C(=O)O,Potency,[9],active: 79.4 µM
same,Potency,[5],"inconclusive: 12.6 µM [inhibitor, full curve, poor fit]"
same,Potency,[6],"inconclusive: 0.282 µM [inhibitor, full curve, poor fit]"
same,Potency,[7],"inconclusive: 0.112 µM [rising, full curve, poor fit]"
same,Potency,Papain (Carica papaya),"inconclusive: 7.94 µM [inhibitor, partial curve, poor fit]"
Cc1c(C(=O)NN2CCCCC2)nn(-c2ccc(Cl)cc2Cl)c1-c1ccc(Cl)cc1,Potency,[10],inactive
Nc1ccn(C2CO[C@H](CO)O2)c(=O)n1 (stereo partly specified),Potency,[11],inactive
Nc1nc(=S)c2[nH]cnc2[nH]1,Potency,[12],inactive
Clc1cccc(-n2nnnc2NCc2ccccc2Oc2ccccn2)c1Cl,"activity change, negative = inhibition",[13],inconclusive: -33.4% [inhibitor]
same,Potency,[14],active: 6.01 µM
CC1=CC(=O)c2ccccc2C1=O,Potency,[13],"inconclusive: 26.2 µM [inhibitor, single point]"
same,Potency,[15],active: 15.5 µM
same,Potency,[14],"inconclusive: 38.9 µM [inhibitor, single point]"
CC1(C)CC(=O)c2c(C(F)(F)F)nn(-c3ccc(C(N)=O)c(NC4CCC(O)CC4)c3)c2C1 (stereo unspecified),Potency,[13],"inconclusive: 0.0466 µM [inhibitor, full curve]"
same,Potency,[15],"inconclusive: 21.3 µM [inhibitor, single point]"
CCCCOc1c(C(=O)c2c(F)cc(C)cc2F)cnc2n[nH]cc12,Potency,[13],"inconclusive: 2.94 µM [inhibitor, partial curve, poor fit]"
same,Potency,[16],"inconclusive: 1.68 µM [inhibitor, full curve]"
same,Potency,[14],"inconclusive: 1.34 µM [inhibitor, full curve]"
Cc1cc(-c2ncc(CC(=O)Nc3ccc(-c4cnccn4)cn3)cc2C)ccn1,Potency,[13],inactive
same,Potency,[15],inactive
O=C(Nc1cccc2c(=O)cc(-c3nn[nH]n3)oc12)c1ccc(OCCCCc2ccccc2)cc1,Potency,[1],active: 15.8 µM
same,Potency,[2],"inconclusive: 4.47 µM [inhibitor, full curve, poor fit]"
same,Potency,[10],inactive
same,Potency,[15],active: 15.5 µM
S=P(N1CC1)(N1CC1)N1CC1,Potency,[2],"inconclusive: 89.1 µM [inhibitor, partial curve, poor fit]"
same,Potency,[4],"inconclusive: 126 µM [inhibitor, partial curve]"
same,Potency,[6],inactive
same,max response,[7],inactive: 22.2%
same,Potency,[16],"inconclusive: 1.58 µM [inhibitor, full curve] and inconclusive: 2.24 µM [inhibitor, full curve, poor fit]"
